From article PMC12136788 come the findings set out here.

First the molecules themselves.
B1: chr11:118373572:118373686:+|CDS|ENSG00000110344|unk|total|mutant (ssRNA)
RNA: GGGAGUUCUACAGUCCGACGAUCGAAGACCUUGCUGGGAGUAAUUCUGAGUAUCUCCUGCUUAUUAAAGACUCCGGGUGUUGCCGAAAAUCAUGGCUACUUUUUGAAUCCAUCUCGUUCCAGCCCCCAGGAGAUCAAAGUACACAACAGAGGAUUGAGCAUCA
B2: chr4:38700566:38700667:+|3pUTR|ENSG00000109787|unk|FALSE|unique (ssRNA)
RNA: GGGAGUUCUACAGUCCGACGAUCUACAAAGCCAUCUUUACAUGCAUUAAACGAGGGCUACAACAAUAUUGUUUUACAAAUACUAGCACUUUUUUUUCUGUUAUGUACUUAGUGUUAGAGGGUCAAAAUAAUCUUUCUGCUUAGCAACAGAGGAUUGAGCAUCA
B3: chr1:246839951:246840052:-|3pUTR|ENSG00000153207|msi1|total|mutant (ssRNA)
RNA: GGGAGUUCUACAGUCCGACGAUCAAAUGUAAAAUAAAUCUGUUUAUGGAUAUUGAGUGCAUCUUGUAUGUGCCUAAUAUUGACCGGAUGAGAUGUCUGAACAAAUUUUUAUAAUAUUGCUGUGAAGGAGCUUGCUAUUGAACCCAACAGAGGAUUGAGCAUCA
B4: chr9:116699486:116699595:+|CDS|ENSG00000119401|unk|FALSE|unique (ssRNA)
RNA: GGGAGUUCUACAGUCCGACGAUCUUCCGCUGCAUUGCUGGCAUGUGUGUGGAUGCUCGUGGUGAUCUCAUCGUGGCUGACAGUAGUCGCAAGGAAAUUCUCCAUUUUCCUAAGGGUGGGGGCUAUAGUGUCCUUAUUCGAGAGCAACAGAGGAUUGAGCAUCA
B5: chr3:48658964:48659065:-|CDS|ENSG00000008300|msi1|FALSE|unique (ssRNA)
RNA: GGGAGUUCUACAGUCCGACGAUCCGAUGUCUCCGACCACCUCUUCUACUCCUUUGAGCGUGGCAAUGAGCUGCAGCUGCUGGUAGUCAACCAGACCAGUGGGGAGCUGCGACUCAGCCGAAAGCUAGACAAUAACCGCCCACUCAACAGAGGAUUGAGCAUCA
B6: chr1:17826356:17826472:+|CDS|ENSG00000117148|unk|total|mutant (ssRNA)
RNA: GGGAGUUCUACAGUCCGACGAUCAGGGAGCUGAUGGGGGAUCACGUCUCCUCCACCAAGGCCACAGUCUGGGAGGGUUCCAACCGAAACUUCCGUGUCUGGCCCGGAGCGUCCGUGGUGGCUCACCUUUCUACCUACCAGUCUCAACAGAGGAUUGAGCAUCA

The other results are listed elsewhere or left out.

The target of the assay is MSI1 full-length (mouse, UniProt Q61474 1-362). Kind of assay: nsRBNS (natural sequence RNA bind-n-seq); RBNS binding buffer (assumed for nsRBNS): 25 mM Tris pH 7.5, 150 mM KCl, 3 mM MgCl2, 0.01% Triton X-100, 500 ug/ml BSA, 20 U/ml SUPERase-In, 4 C; UNK is unkempt and MSI1 is Musashi-1; names of the RNAs are library labels; protein concentration not given here; high values mean tight binding.
Chain of UniProt Q61474 (Q61474 whole entry): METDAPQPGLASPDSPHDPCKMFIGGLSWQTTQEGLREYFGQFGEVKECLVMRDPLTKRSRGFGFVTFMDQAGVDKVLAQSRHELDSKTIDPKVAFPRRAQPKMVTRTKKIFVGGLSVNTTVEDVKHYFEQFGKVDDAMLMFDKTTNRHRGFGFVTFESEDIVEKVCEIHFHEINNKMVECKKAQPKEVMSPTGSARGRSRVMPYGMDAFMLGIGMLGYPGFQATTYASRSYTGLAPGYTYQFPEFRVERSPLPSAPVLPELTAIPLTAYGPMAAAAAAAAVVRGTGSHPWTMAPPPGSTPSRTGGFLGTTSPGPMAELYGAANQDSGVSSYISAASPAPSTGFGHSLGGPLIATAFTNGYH
B1 registered a binding signal of 0.396 enrichment R.
B2 registered a binding signal of 1.34 enrichment R.
For B3, the binding signal turned out to be 0.265 enrichment R.
B4 registered a binding signal of 0.63 enrichment R.
The result for B5 reads 0.506 enrichment R; that for B6, 0.51 enrichment R.
